In all, about 340,000 compounds went through this assay and about 12,000 (3.5%) were called active. This list was built around the results that the source calls inconclusive (neither active nor inactive); the mix of calls is not that of the screen. The call rests on the fitted dose curve; in most records, active means well fitted inhibition curve with a large enough effect; inconclusive means small, poorly fitted or top-dose-only effect, or another doubt; inactive means no such curve, though single readings can be large or run the other way. No potency is given beside an inconclusive call; the fits are too rough.
Test: qHTS Assay for Inhibitors of Hepatitis C Virus (HCV)
Conditions: Huh7.5.1 HCVcc-Cre (HCVcc is cell-culture hepatitis C virus) infection, luciferase reporter, 44 h; series mostly up to 41.8 µM
Outline: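 Cells seeded at 1,000/well and cultured 4 h, then compounds added followed by HCVcc-Cre virus (~0.5 moi). After 44 h further culture, luciferase substrate was added, plates held 15 min at room temperature, and luminescence read for 15 sec.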
For `CCc1ccc(OCCCCCn2ccnc2)cc1`, the Potency was inconclusive [inhibitor, single point].
With `Cc1oc2ccc(O)c(CN3CCOCC3)c2c1C(=O)c1ccc(Cl)cc1` the Potency was inconclusive [inhibitor, single point].
With `O=C(c1cccc(S(=O)(=O)N2CCOCC2)c1)N(Cc1ccc(F)cc1)Cc1ccco1` the Potency was inconclusive [inhibitor, single point].
In the case of `COc1ccc(C(=O)Nc2cccc(C(=O)NCc3ccccc3)c2)cc1`, the Potency is reported as inconclusive [inhibitor, single point].
In the case of `C[C@@H](NC(=O)OC(C)(C)C)c1nnc(S(=O)(=O)Cc2ccccc2)o1`, the Potency is reported as inconclusive [inhibitor, single point].
For `CC(C)(C)C(=O)/C=C(N)/C=C/c1ccccc1`, the Potency was “inactive”.
In the case of `Cc1cccc(NC(=O)c2cccc3c2C(=O)c2ccccc2-3)c1`, the Potency is reported as inconclusive [inhibitor, single point].
In the case of `CCOc1ccc(N(C)S(=O)(=O)c2cc(-c3cc(C)no3)ccc2C(C)C)cc1`, the Potency is reported as inconclusive [inhibitor, single point].
In the case of `COc1cc(C(c2nnnn2C2CCCC2)N2CCN(C)CC2)cc(OC)c1OC` (configuration not stated), the Potency is reported as “inactive”.
In the case of `COc1ccccc1CNC(=O)c1ccc(-c2ccccc2Cl)o1`, the Potency is reported as inconclusive [inhibitor, single point].
With `O=C(NNC(=O)c1cc([N+](=O)[O-])ccc1Cl)c1cccs1` the Potency was “inactive”.
For `O=C(Nc1ccc(Cl)cc1)N1CCCN(c2ccc(C(F)(F)F)cc2[N+](=O)[O-])CC1`, the Potency was “inactive”.
In the case of `O=C(c1ccc(Br)cc1)C(CN1CCOCC1)c1ccccc1` (configuration not stated), the Potency is reported as “inactive”.
For `O=C(Nc1cccn(Cc2c(Cl)cccc2Cl)c1=O)c1c(Cl)cccc1Cl`, the Potency was inconclusive [inhibitor, single point].
In the case of `O=C(CN1CCN(S(=O)(=O)c2ccc(F)c(Cl)c2)CC1)N1CCc2ccccc2C1`, the Potency is reported as inconclusive [inhibitor, single point].
For `Cc1ccc(S(=O)(=O)Oc2ccccc2/C=N/NC(N)=S)cc1`, the Potency was inconclusive [inhibitor, single point].
With `CCOc1ccc(NC(=O)C2CCCCN2S(=O)(=O)c2ccccc2)cc1` (configuration not stated) the Potency was inconclusive [inhibitor, single point].
With `CCOc1ccc(CCNC(=O)c2cc([N+](=O)[O-])ccc2N2CCOCC2)cc1OCC` the Potency was inconclusive [inhibitor, partial curve, poor fit].
With `COc1cccc(NC(=O)CN(C)C(C)C(=O)NC(C)c2ccc(Cl)cc2Cl)c1` (configuration not stated) the Potency was inconclusive [inhibitor, partial curve].
In the case of `Cc1cccc2c1-c1sc(C(=O)NCCCN3CCCC(C)C3)cc1CO2` (configuration not stated), the Potency is reported as active: 11.2 µM.
With `CCOC(=O)[C@H]1[C@H]2COc3cc(OC)ccc3[C@@H]2N2C(=O)c3cc(C)ccc3NC(=O)[C@@]12C` the Potency was “inactive”.
In the case of `COc1ccc(NC(=O)COC(=O)c2ccc(-n3cnnn3)cc2)cc1Cl`, the Potency is reported as inconclusive [inhibitor, single point].
For `COc1ccccc1N1CCN(C2CCCN(C(=O)c3cc(C)oc3C)C2)CC1` (configuration not stated), the Potency was inconclusive [inhibitor, single point].
With `COc1ccccc1CNC(=O)c1ccc2c(=O)n(CCCN3CCCC3=O)c(=S)[nH]c2c1` the Potency was “inactive”.
In the case of `COc1ccc(-c2ccc(SCC(=O)c3ccccc3)nn2)cc1OC`, the Potency is reported as inconclusive [inhibitor, partial curve].
For `O=c1c2[nH]c3ccc(F)cc3c2ncn1CCCn1ccnc1`, the Potency was inconclusive [inhibitor, single point].
For `CCC(Cc1ccccc1)NC(=O)CN1C(=O)CSc2ncccc21` (configuration not stated), the Potency was active: 12.6 µM.
For `CCOC(=O)[C@@H]1[C@H]2COc3ccccc3[C@@H]2N2C(=O)N(c3ccc(Cl)cc3)C(=O)[C@]12C`, the Potency was inconclusive [inhibitor, single point].
With `O=C(CN1C(=O)NC2(CCCCC2)C1=O)Nc1ccc2c(c1)CCC2` the Potency was inconclusive [inhibitor, single point].
In the case of `O=S(=O)(c1ccccc1)N(Cc1nc(-c2ccccc2)no1)C1CCCCC1`, the Potency is reported as inconclusive [inhibitor, partial curve].
With `O=C(Nc1ccccc1C(=O)O)c1cc(S(=O)(=O)Nc2cccc(F)c2)ccc1Cl` the Potency was “inactive”.
For `Cc1cc(C)c(S(=O)(=O)N2CCN(c3ccc([N+](=O)[O-])c(-n4nc(C)cc4C)c3)CC2)c(C)c1`, the Potency was inconclusive [inhibitor, partial curve].
For `O=C(CNC(=S)NC(=O)c1ccc(Br)o1)c1ccccc1`, the Potency was inconclusive [inhibitor, full curve, poor fit].
For `Cc1ccsc1/C=C1/NC(=O)N(Cc2ccc(F)cc2)C1=O`, the Potency was “inactive”.
For `Cn1c(=O)c2c(nc(N3CCN(Cc4ccccc4)CC3)n2CCCc2ccccc2)n(C)c1=O`, the Potency was inconclusive [inhibitor, partial curve, poor fit].
In the case of `c1ccc2c(c1)nc(N1CCOCC1)c1nncn12`, the Potency is reported as inconclusive [inhibitor, partial curve].
For `CCOC(=O)c1cnc2c(ccc3ccccc32)c1NCCCN(C)C`, the Potency was inconclusive [inhibitor, single point].
In the case of `Nc1ccccc1OCCOCCOc1ccccc1N`, the Potency is reported as inconclusive [inhibitor, single point].
In the case of `CCOc1ccc(NS(=O)(=O)c2cccc(C(=O)N3CCN(C/C=C/c4ccccc4)CC3)c2)cc1`, the Potency is reported as inconclusive [inhibitor, partial curve].
For `Cc1ccccc1NC(=O)c1ccc(S(=O)(=O)N(C)C)cc1`, the Potency was “inactive”.
With `CC(=O)NC(CC(=O)OCC(=O)N1CCN(S(=O)(=O)c2ccc(C)cc2C)CC1)c1ccccc1` (configuration not stated) the Potency was inconclusive [inhibitor, single point].
In the case of `Cc1cc(N2CCN(C)CC2)nc2ccc(NC(=S)NCCCN3CCc4ccccc4C3)cc12`, the Potency is reported as active: 11.2 µM.
Potency means the concentration at half of the fitted maximal effect; tags describe the fitted curve by direction and shape.
